# The supplement of paper PMC8728848
# The other results are listed elsewhere or left out.
# Legend:
# Experiment in all cases: glycan array binding signal (z-score within array); higher = stronger binding
# Conditions in all cases: glycan notation: IUPAC condensed, linker removed; mutation: R74S
# [1] = molecular target: Fuc(a1-2)Gal6S(b1-3)GlcNAc
# Method in brief: (§1)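 Negative Z-scores can be read as non-binding. The Z-score is calculated within each array and then averaged across arrays of one protein sequence at different concentrations or buffers and across linkers. Arrays, 3228 in all, were curated from the Consortium for Functional Glycomics database and kept only where the protein sequence was available.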
# [2] = molecular target: Fuc(a1-2)Gal6S(b1-3)GlcNAc6S
# Method in brief: as §1
# Fuc(a1-2)Gal6S(b1-4)Glc = molecular target: Fuc(a1-2)Gal6S(b1-4)Glc
# Method in brief: as §1
# [3] = molecular target: Fuc(a1-2)Gal6S(b1-4)Glc6S
# Method in brief: as §1
# Fuc(a1-2)[Gal(a1-3)]Gal = molecular target: Fuc(a1-2)[Gal(a1-3)]Gal
# Method in brief: as §1
# [4] = molecular target: Fuc(a1-2)[Gal(a1-3)]Gal(b1-3)GalNAc
# Method in brief: as §1
# [5] = molecular target: Fuc(a1-2)[Gal(a1-3)]Gal(b1-3)GalNAc(b1-3)Gal(a1-4)Gal(b1-4)Glc
# Method in brief: as §1
# [6] = molecular target: Fuc(a1-2)[Gal(a1-3)]Gal(b1-3)GlcNAc
# Method in brief: as §1
# [7] = molecular target: Fuc(a1-2)[Gal(a1-3)]Gal(b1-3)GlcNAc(b1-2)Man(a1-3)[Fuc(a1-2)[Gal(a1-3)]Gal(b1-3)GlcNAc(b1-2)Man(a1-6)]Man(b1-4)GlcNAc(b1-4)GlcNAc
# Method in brief: as §1
# [8] = molecular target: Fuc(a1-2)[Gal(a1-3)]Gal(b1-3)GlcNAc(b1-2)Man(a1-3)[Fuc(a1-2)[Gal(a1-3)]Gal(b1-3)GlcNAc(b1-2)Man(a1-6)]Man(b1-4)GlcNAc(b1-4)[Fuc(a1-6)]GlcNAc
# Method in brief: as §1
# [9] = molecular target: Fuc(a1-2)[Gal(a1-3)]Gal(b1-3)GlcNAc(b1-3)GalNAc
# Method in brief: as §1
# [10] = molecular target: Fuc(a1-2)[Gal(a1-3)]Gal(b1-3)GlcNAc(b1-6)GalNAc
# Method in brief: as §1
# [11] = molecular target: Fuc(a1-2)[Gal(a1-3)]Gal(b1-4)Glc
# Method in brief: as §1
# [12] = molecular target: Fuc(a1-2)[Gal(a1-3)]Gal(b1-4)GlcNAc
# Method in brief: as §1
# [13] = molecular target: Fuc(a1-2)[Gal(a1-3)]Gal(b1-4)GlcNAc(b1-2)Man
# Method in brief: as §1
# [14] = molecular target: Fuc(a1-2)[Gal(a1-3)]Gal(b1-4)GlcNAc(b1-2)Man(a1-3)[Fuc(a1-2)[Gal(a1-3)]Gal(b1-4)GlcNAc(b1-2)Man(a1-6)]Man(b1-4)GlcNAc(b1-4)GlcNAc
# Method in brief: as §1
# [15] = molecular target: Fuc(a1-2)[Gal(a1-3)]Gal(b1-4)GlcNAc(b1-2)Man(a1-3)[Fuc(a1-2)[Gal(a1-3)]Gal(b1-4)GlcNAc(b1-2)Man(a1-6)]Man(b1-4)GlcNAc(b1-4)[Fuc(a1-6)]GlcNAc
# Method in brief: as §1
# [16] = molecular target: Fuc(a1-2)[Gal(a1-3)]Gal(b1-4)GlcNAc(b1-3)GalNAc
# Method in brief: as §1
# [17] = molecular target: Fuc(a1-2)[Gal(a1-3)]Gal(b1-4)GlcNAc(b1-3)[Fuc(a1-2)[Gal(a1-3)]Gal(b1-4)GlcNAc(b1-6)]GalNAc
# Method in brief: as §1
# [18] = molecular target: Fuc(a1-2)[Gal(a1-3)]Gal(b1-4)GlcNAc(b1-6)GalNAc
# Method in brief: as §1
# [19] = molecular target: Fuc(a1-2)[Gal(a1-3)]Gal(b1-4)[Fuc(a1-3)]Glc
# Method in brief: as §1
# [20] = molecular target: Fuc(a1-2)[Gal(a1-3)]Gal(b1-4)[Fuc(a1-3)]GlcNAc
# Method in brief: as §1
# [21] = molecular target: Fuc(a1-2)[Gal(a1-3)]Gal(b1-4)[Fuc(a1-3)]GlcNAc(b1-3)GalNAc
# Method in brief: as §1
# [22] = molecular target: Fuc(a1-2)[Gal(a1-4)]Gal(b1-4)GlcNAc
# Method in brief: as §1
# [23] = molecular target: Fuc(a1-2)[GalNAc(a1-3)]Gal
# Method in brief: as §1
# [24] = molecular target: Fuc(a1-2)[GalNAc(a1-3)]Gal(b1-3)GalNAc(a1-3)[Fuc(a1-2)]Gal(b1-4)GlcNAc
# Method in brief: as §1
# [25] = molecular target: Fuc(a1-2)[GalNAc(a1-3)]Gal(b1-3)GalNAc(b1-3)Gal(a1-4)Gal(b1-4)Glc
# Method in brief: as §1
# [26] = molecular target: Fuc(a1-2)[GalNAc(a1-3)]Gal(b1-3)GlcNAc
# Method in brief: as §1
# [27] = molecular target: Fuc(a1-2)[GalNAc(a1-3)]Gal(b1-3)GlcNAc(b1-2)Man(a1-3)[Fuc(a1-2)[GalNAc(a1-3)]Gal(b1-3)GlcNAc(b1-2)Man(a1-6)]Man(b1-4)GlcNAc(b1-4)GlcNAc
# Method in brief: as §1
# [28] = molecular target: Fuc(a1-2)[GalNAc(a1-3)]Gal(b1-3)GlcNAc(b1-2)Man(a1-3)[Fuc(a1-2)[GalNAc(a1-3)]Gal(b1-3)GlcNAc(b1-2)Man(a1-6)]Man(b1-4)GlcNAc(b1-4)[Fuc(a1-6)]GlcNAc
# Method in brief: as §1
# [29] = molecular target: Fuc(a1-2)[GalNAc(a1-3)]Gal(b1-3)GlcNAc(b1-3)GalNAc
# Method in brief: as §1
# [30] = molecular target: Fuc(a1-2)[GalNAc(a1-3)]Gal(b1-3)GlcNAc(b1-6)GalNAc
# Method in brief: as §1
# [31] = molecular target: Fuc(a1-2)[GalNAc(a1-3)]Gal(b1-4)Glc
# Method in brief: as §1
# [32] = molecular target: Fuc(a1-2)[GalNAc(a1-3)]Gal(b1-4)GlcNAc
# Method in brief: as §1
# [33] = molecular target: Fuc(a1-2)[GalNAc(a1-3)]Gal(b1-4)GlcNAc(b1-2)Man
# Method in brief: as §1
# [34] = molecular target: Fuc(a1-2)[GalNAc(a1-3)]Gal(b1-4)GlcNAc(b1-2)Man(a1-3)[Fuc(a1-2)[GalNAc(a1-3)]Gal(b1-4)GlcNAc(b1-2)Man(a1-6)]Man(b1-4)GlcNAc(b1-4)GlcNAc
# Method in brief: as §1
# [35] = molecular target: Fuc(a1-2)[GalNAc(a1-3)]Gal(b1-4)GlcNAc(b1-2)Man(a1-3)[Fuc(a1-2)[GalNAc(a1-3)]Gal(b1-4)GlcNAc(b1-2)Man(a1-6)]Man(b1-4)GlcNAc(b1-4)[Fuc(a1-6)]GlcNAc
# Method in brief: as §1
# [36] = molecular target: Fuc(a1-2)[GalNAc(a1-3)]Gal(b1-4)GlcNAc(b1-3)Gal(b1-4)GlcNAc
# Method in brief: as §1
# [37] = molecular target: Fuc(a1-2)[GalNAc(a1-3)]Gal(b1-4)GlcNAc(b1-3)Gal(b1-4)GlcNAc(b1-3)Gal(b1-4)GlcNAc
# Method in brief: as §1
# [38] = molecular target: Fuc(a1-2)[GalNAc(a1-3)]Gal(b1-4)GlcNAc(b1-3)GalNAc
# Method in brief: as §1
# [39] = molecular target: Fuc(a1-2)[GalNAc(a1-3)]Gal(b1-4)GlcNAc(b1-3)[Fuc(a1-2)[GalNAc(a1-3)]Gal(b1-4)GlcNAc(b1-6)]GalNAc
# Method in brief: as §1
# [40] = molecular target: Fuc(a1-2)[GalNAc(a1-3)]Gal(b1-4)GlcNAc(b1-6)GalNAc
# Method in brief: as §1
# [41] = molecular target: Fuc(a1-2)[GalNAc(a1-3)]Gal(b1-4)[Fuc(a1-3)]GlcNAc
# Method in brief: as §1
# [42] = molecular target: Fuc(a1-2)[GalNAc(a1-3)]Gal(b1-4)[Fuc(a1-3)]GlcNAc(b1-3)GalNAc
# Method in brief: as §1
# [43] = molecular target: Fuc(a1-2)[GalNAc(a1-4)]Gal(b1-4)GlcNAc
# Method in brief: as §1
binder,measurement,setting,value
Gal 7 (Homo sapiens) (protein) MSNVPHKSSLPEGIRPGTVLRIRGLVPPNASRFHVNLLCGEEGGSDAALHFNPRLDTSEVVFNSKEGGSWGREESGPGVPFGRGQPFEVLIIASDDGFKAVVGDAQYHHFRHRLPLARVRLVEVGGDVQLDSVRIF,glycan array binding signal (z-score),[1],-0.216
same,glycan array binding signal (z-score),[2],0.048
same,glycan array binding signal (z-score),Fuc(a1-2)Gal6S(b1-4)Glc,-0.5
same,glycan array binding signal (z-score),[3],0.38
same,glycan array binding signal (z-score),Fuc(a1-2)[Gal(a1-3)]Gal,-0.22
same,glycan array binding signal (z-score),[4],-0.278
same,glycan array binding signal (z-score),[5],0.194
same,glycan array binding signal (z-score),[6],-0.215
same,glycan array binding signal (z-score),[7],0.275
same,glycan array binding signal (z-score),[8],-0.135
same,glycan array binding signal (z-score),[9],-0.42
same,glycan array binding signal (z-score),[10],-0.325
same,glycan array binding signal (z-score),[11],-0.191
same,glycan array binding signal (z-score),[12],-0.56
same,glycan array binding signal (z-score),[13],-0.414
same,glycan array binding signal (z-score),[14],-0.33
same,glycan array binding signal (z-score),[15],-0.124
same,glycan array binding signal (z-score),[16],-0.532
same,glycan array binding signal (z-score),[17],-0.371
same,glycan array binding signal (z-score),[18],-0.105
same,glycan array binding signal (z-score),[19],-0.349
same,glycan array binding signal (z-score),[20],0.045
same,glycan array binding signal (z-score),[21],-0.461
same,glycan array binding signal (z-score),[22],-0.289
same,glycan array binding signal (z-score),[23],-0.388
same,glycan array binding signal (z-score),[24],-0.542
same,glycan array binding signal (z-score),[25],-0.104
same,glycan array binding signal (z-score),[26],-0.01
same,glycan array binding signal (z-score),[27],-0.27
same,glycan array binding signal (z-score),[28],-0.352
same,glycan array binding signal (z-score),[29],0.093
same,glycan array binding signal (z-score),[30],-0.444
same,glycan array binding signal (z-score),[31],-0.228
same,glycan array binding signal (z-score),[32],-0.307
same,glycan array binding signal (z-score),[33],-0.473
same,glycan array binding signal (z-score),[34],-0.5
same,glycan array binding signal (z-score),[35],-0.12
same,glycan array binding signal (z-score),[36],-0.309
same,glycan array binding signal (z-score),[37],-0.239
same,glycan array binding signal (z-score),[38],-0.503
same,glycan array binding signal (z-score),[39],-0.447
same,glycan array binding signal (z-score),[40],-0.44
same,glycan array binding signal (z-score),[41],-0.451
same,glycan array binding signal (z-score),[42],0.514
same,glycan array binding signal (z-score),[43],-0.094
